# Results as given in PubChem BioAssay AID686979 (National Center for Advancing Translational Sciences (NCATS), 2013).
# In all, about 420,000 compounds went through this assay and about 50,000 (12%) were called active. Another 26% or so got no clear call; they are omitted. Calls come from the whole dose curve; as a rule, active = well fitted inhibition curve with a large enough effect; inconclusive = small, poorly fitted or top-dose-only effect; inactive = flat fitted curve, though single readings scatter. This is a selection; strong and weak results do not stand in their true shares.
# Experiment: qHTS for Inhibitors of human tyrosyl-DNA phosphodiesterase 1 (TDP1): qHTS in cells in presence of CPT; note: nearly all actives have a fitted effect of over 55% in size
# Settings: chicken DT40 Tdp1-/-;hTDP1 cells + 20 nM CPT, ATP luminescence, 48 h; series mostly up to 46.2 µM; activity change, negative = growth inhibition: at the top concentration
# Outline: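 Chicken DT40 Tdp1-/- cells stably complemented with human TDP1 were seeded at 400 cells/well in medium containing 20 nM camptothecin, exposed to pin-transferred compounds, and grown at 37 °C for at least 48 hr. Viability was read as ATP luminescence.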
# % is set by controls: 0 for no effect and ±100 for the full control effect; potency is the fitted concentration of half-maximal effect.
Compound,"activity change, negative = growth inhibition",Potency
CCOC(=O)c1c(C)[nH]c(N=Nc2cc(C(=O)O)cc(C(=O)O)c2)c1C,inactive: 30.4%,–
O=C(COC(=O)c1ccc(CO)cc1)c1ccc(S(=O)(=O)N2CCCCC2)cc1,inactive: -14.7%,–
CCO[C@H]1OC(C(=O)NCc2ccccc2)=C[C@@H](c2ccccc2)[C@@H]1CCCO,inactive: -24.9%,–
O=C(CNC(=O)c1ccccc1)OC(C(=O)Nc1cc(C(F)(F)F)ccc1Cl)c1ccccc1 (stereo not given),inactive: -17.8%,–
CC(=O)c1ccc(NC(=O)C2=CC(c3ccc4c(c3)OCO4)=NS(=O)(=O)N2C)cc1,inactive: -23.5%,–
COc1ccc(OC)c(NC(=O)c2cc(-c3c(C)cc(C)cc3O)n[nH]2)c1,inactive: 0.31%,–
COc1ccccc1Nc1cc(C(=O)NC2CCCC2)c2ccccc2n1,inactive: -23.6%,–
COC(=O)C[C@H]1C[C@@H]2c3cc(NS(=O)(=O)c4ccc(OC)cc4)ccc3O[C@@H]2[C@H](CO)O1,inactive: 6.86%,–
COc1ccccc1NC(=O)NCCN1CCN(c2cccc(Cl)c2)CC1,inactive: -26.9%,–
Cn1c(=S)c2[nH]c(SCCN)nc2n(C)c1=O,–,active: 5.8 µM
COc1ccc2[nH]c3c(C)c4cc[n+](C)cc4c(C)c3c2c1,–,active: 0.259 µM
CC(=O)Nc1nc2ccccc2n1Cc1ccccc1Cl,–,active: 20.6 µM
C[C@@H]1CN([C@H](C)CO)C(=O)CCCn2cc(nn2)CO[C@H]1CN(C)C(=O)c1cc(-c2ccccc2)on1,inactive: 2.09%,–
CCCn1c(SCC(=O)c2cc(C)n(-c3ccc4c(c3)OCO4)c2C)n[nH]c1=O,–,active: 23.1 µM
COc1ccccc1NC(=O)Cn1nnc(C(=O)NCc2ccc3c(c2)OCO3)c1N,inactive: -22.9%,–
COCCCCC(=NOCCN)c1ccc(C(F)(F)F)cc1,–,active: 13.3 µM
Cc1ccc(NC(=O)c2cc(-c3cccs3)on2)cc1C,inactive: -9.6%,–
Cc1ccc2c(c1)CC1(CN2C)C(=O)OC(C)(C)OC1=O,inactive: -14.9%,–
CCn1nc(C)c(Br)c1C(=O)Sc1ccccc1Cl,–,active: 3.66 µM
COCCN(C(=O)c1snc(C(N)=O)c1N)C(C(=O)NC1CCCC1)c1cc(OC)c(OC)c(OC)c1 (stereo not given),inactive: 2.35%,–

Compound,"activity change, negative = growth inhibition",Potency
c1ccc(-c2cc(CSc3nc4ccccc4[nH]3)on2)cc1,–,active: 11.6 µM
CC12CCC(=O)C=C1CCC1C2CCC2(C)C1CC[C@]2(O)C(=O)CO (stereo not given in full),inactive: -24.5%,–
O=C(COC(=O)c1n[nH]c(=O)c2ccccc12)c1ccccc1,inactive: -3.68%,–
CCN(CC)CCOC(=O)C1(C2CCCCC2)CCCCC1,inactive: -8.11%,–
O=c1c2cc(-c3ccccc3)sc2nc2n1N=C(c1cccs1)CS2,–,active: 16.4 µM
CCCCCCCCCCCCCCCC(=O)OC/C=C(C)/C=C/C=C(C)/C=C/C1=C(C)CCCC1(C)C,–,inactive
CC(=O)OCC(=O)[C@@]1(O)CC[C@H]2[C@@H]3CCC4=CC(=O)CC[C@]4(C)[C@H]3[C@@H](O)C[C@@]21C,inactive: -20.8%,–
O=S(=O)(NCCc1ccccc1)c1ccc(Cl)nc1,inactive: 32.2%,–
Cc1ccc(Cc2c(-c3ccco3)nc3c4ccccc4ccn23)cc1,–,active: 18.4 µM
CC1(C)CC(=O)C(C(C2=C(O)CC(C)(C)CC2=O)c2ccc(Cl)c([N+](=O)[O-])c2)C(=O)C1 (stereo not given),inactive: 32.3%,–
Cc1cccc(N=Nc2cn[nH]c2-c2ccco2)c1,inactive: 33.3%,–
CCC(C)(C)n1nnnc1C(c1ccc(O)c(OC)c1)N1CCc2ccccc2C1 (stereo not given),–,active: 7.31 µM
C=CCOC(=O)/C(=C\c1cccc2ccccc12)NC(=O)c1ccccc1,inactive: -24.9%,–
Cc1ccccc1-c1nc(CN2CCCC2c2ccc(F)cc2)c(C)o1 (stereo not given),–,active: 20.6 µM
COc1cc(OC)cc(C(=O)N2CCCc3ccccc32)c1,–,active: 16.4 µM
OC(CCN1CCCCC1)(c1ccccc1)C1C[C@@H]2C=C[C@H]1C2 (stereo not given in full),inactive: -25.6%,–
COC(=O)c1ccc(NC(=O)C[n+]2ccccc2)cc1,inactive: 34.9%,–
O=C1[C@H]2[C@@H](c3ccc(C(F)(F)F)cc3)N[C@]3(CCCN(Cc4ccc(Cl)cc4)C3=O)[C@H]2C(=O)N1Cc1ccccc1,–,active: 16.4 µM
Cc1ccc(C(=O)N/C(=C/c2cccs2)C(=O)NCCc2c[nH]c3ccccc23)cc1,inactive: -15.9%,–
CCN1C(=O)N[C@@H](c2ccc(Br)cc2)C(C(C)=O)=C1C,inactive: 1.74%,–

Compound,"activity change, negative = growth inhibition",Potency
CC(C)(C)[C@H]1C=C(C(=O)N2CCOCC2)O[C@@H](OCc2ccc(CO)cc2)C1,inactive: -19.8%,–
Clc1ccc(-n2cccc2)cn1,inactive: 12.5%,–
COc1ccc(/C=C(\C#N)C(=O)OCC(=O)NC(C)c2ccccc2)cc1 (stereo not given),inactive: 33.3%,–
O=C(NCc1ccccn1)[C@@H]1C[C@H]1[C@@H](NP(=O)(c1ccccc1)c1ccccc1)c1ccccc1,inactive: -19.9%,–
C[C@H](CO)N1C[C@H](C)[C@@H](CN(C)C(=O)Nc2ccc(C(F)(F)F)cc2)Oc2ccc(NC(=O)NC3CCCCC3)cc2C1=O,inactive: -8.82%,–
Cc1ccc(NC(=S)c2nc3ccccc3[nH]2)cc1,–,active: 13 µM
COc1ccc(CNC(=O)CS(=O)Cc2nc(-c3ccc(OC)c(OC)c3)oc2C)cc1 (stereo not given),inactive: -18.6%,–
Cc1ccc(C)c(NC(=O)CCOc2ccccc2)c1,inactive: 3.09%,–
COC(=O)[C@@]12CCCCN1[C@H](c1ccc(-c3cc(C(C)=O)cs3)c(OC)c1)[C@H]1C(=O)N(C)C(=O)[C@H]12,–,active: 4.11 µM
Cc1cc(C)n(-c2nc3c(c(=O)[nH]c(=O)n3C)n2CC(O)COc2ccc(Cl)cc2Cl)n1 (stereo not given),–,active: 6.51 µM
N#CC[C@H](Cc1ccccc1)N1CCN(CCc2ccccc2)CCC1=O,inactive: 6.02%,–
CCOC(=O)c1sc(=S)n(CC)c1NC(=O)C1CC1,inactive: 31.1%,–
N#Cc1c2c(c(Nc3ccc(F)cc3)n3c1nc1ccccc13)CCCC2,–,active: 16.4 µM
Cc1cccc(N=Nc2c(C)c(C#N)c(O)[nH]c2=O)c1,inactive: 32.9%,–
CCOC(=O)N1CCN(c2cc(=O)n(-c3ccccc3C)c(=O)[nH]2)CC1,inactive: -5.95%,–
COc1ccc(-c2cc(C(F)(F)F)nc(S(=O)(=O)CCCC(=O)Nc3ccccc3C(F)(F)F)n2)cc1OC,–,active: 1.16 µM
CC(=O)Nc1ccc(S(=O)(=O)N2CCN(c3cc(C)ccc3C)CC2)cc1,–,active: 16.4 µM
COc1ccccc1N1CCN(C(=O)CCSCc2ccccc2F)CC1,inactive: 28%,–
COC(=O)c1cc(S(=O)(=O)NCC2CCN(Cc3ccc(F)cc3)CC2)cn1C,inactive: 6.38%,–
O=C(NN=Cc1ccc2c(c1)CCC2)c1ccccc1[N+](=O)[O-],–,active: 23.1 µM
